The source of these data is PubChem BioAssay AID463173 (ICCB-Longwood Screening Facility, Harvard Medical School, 2010).

Each structure is given as a SMILES string. Screen size: about 52,000 compounds; about 1,700 (3.3%) were called active. Cut-off read from the data, not from the text of the source: active = survival mostly below about 52% (no sharp cut-off); inactive = mostly above about 56%. The list shows a part of the results.

The assay relates to Wild type. In words: S. aureus survival, RN4220 and DeltatarO strains – OD600, teichoic acid synthesis inhibitors, primary screen (AID 463173). The conditions noted are these: S. aureus RN4220 wild type/DeltatarO growth, OD600, 18 h, hits give low values, screened at 18.75 µg/mL (by protocol).
`CCOc1ccc(-n2ccnc2SCC(=O)Nc2cc(C)ccc2C)cc1`: the survival is inactive: 74%. For `CCOCc1cc(CN2CCN(c3cccc(C(F)(F)F)c3)CC2)c(O)c2ncccc12` the value was inactive: 83%; for `COc1cccc(-n2c(SCc3cccc(C)c3)nc3c([nH]c4ccccc43)c2=O)c1`, inactive: 78%.

Take `Cc1ccc(C)c(NC(=O)C(=O)NCCCN2CCOCC2)c1`: the survival is inactive: 78%. For `CCOc1ccccc1NC(=O)COC(=O)CC(C)(C)CC1=NS(=O)(=O)c2ccccc2N1` the value was inactive: 63%; for `Cc1onc(-c2ccccc2Cl)c1C(=O)Oc1ccc(Cl)cc1Cl`, inactive: 82%.

On to `O=C(NCCCN1CCN(c2ccccc2)CC1)c1sc2ncccc2c1-n1cccc1`, for which the survival was inactive: 81%. For `CCOc1ccc(CCNC(=O)c2cnc3c(-c4ccc(F)cc4)c(C)nn3c2C)cc1` the value was inactive: 85%.

Take `Nc1ncc(S(=O)(=O)NCc2ccccc2)cn1`: the survival is inactive: 81%. For `O=S(=O)(c1ccc2nsnc2c1)N1CCCCC1` the value was inactive: 102%; for `COc1ccc(N(C(=O)c2ccccc2C)S(=O)(=O)c2ccc(Cl)cc2)cc1`, inactive: 127%; for `CC1(C)CC(=O)C2=C(C1)OC(N)=C(C#N)C2c1cn(Cc2cccc(F)c2)c2ccccc12` (stereo unspecified), inactive: 112%. Consider `CC(C)(C)C(=O)CNS(=O)(=O)c1ccc(S(=O)(=O)NC2CCCCC2)cc1`, for which the survival was inactive: 104%. Consider `O=C(NCCc1nc2ccccc2n1Cc1ccccc1F)c1ccc(F)cc1`, for which the survival was inactive: 82%. For `COc1ccc(C(=O)c2cn(Cc3ccccc3)c3ccccc3c2=O)cc1OC` the value was inactive: 92%; for `CN1C(C(=O)Nc2cccc(O)c2)=CC(c2cccs2)=NS1(=O)=O`, inactive: 85%; for `O=C(Nc1cc(Cl)cc(Cl)c1)c1cc(S(=O)(=O)NC2CCCC2)ccc1F`, inactive: 83%. Regarding `COc1ccc(CN2C3CCCC2CC(NC(=O)NC2CCCCC2)C3)cc1` (stereo unspecified), the survival was inactive: 101%. As for `Cc1c(Cl)cccc1NC(=O)CCS(=O)(=O)c1ccc2c(c1)CC(C)N2C(=O)C1CC1` (stereo unspecified), the survival is inactive: 85%. For `COc1ccc(CN(C)c2ccc(-c3nc(-c4ccc(OC)c(OC)c4)no3)cc2[N+](=O)[O-])cc1` the value was inactive: 86%; for `CCOc1ccc2nc(Cl)c(C3CC(c4ccc(C)cc4)=NN3C(=O)CCC(=O)O)cc2c1` (stereo unspecified), inactive: 79%; for `Cc1cccc(N2CCN(C(=O)C3CCN(C(=O)c4cc5sccc5n4C)CC3)CC2C)c1` (stereo unspecified), inactive: 69%.

For the compound `COc1cccc(-c2nnc(SCC(=O)N(C)C3CCCCC3)o2)c1`, the survival is inactive: 79%. For `CCOc1ccccc1CNCc1c(C(=O)O)c(C)n(Cc2ccc(C)cc2)c1C` the value was inactive: 90%. For `CN1CCc2nc3sc(C(=O)c4ccc(F)cc4)c(N)c3cc2C1` the value was inactive: 75%; for `COc1cn(CC(=O)Nc2cc(C)cc(C)c2)c(CN2CCCCC2)cc1=O`, inactive: 65%; for `CCC(C)S(=O)(=O)c1oc(-c2cccs2)nc1S(=O)(=O)c1ccccc1` (stereo unspecified), inactive: 16%. For `CCOc1ccc(CCNC(=O)Cn2c(-c3cccs3)cc3ccccc32)cc1` the value was inactive: 58%. With `CCOc1ccc(NC(=O)CN(Cc2ccccc2)S(=O)(=O)c2ccc3nc(C)sc3c2)cc1`, the survival is inactive: 79%. For `CCCNC(=O)c1ccc(SC)cc1OC` the value was inactive: 113%; for `CN1C(=O)c2cccc3c(S(=O)(=O)Nc4cccc(C(=O)O)c4)ccc1c23`, inactive: 77%. For `Cc1ccc2c(c1)c1c(c(=O)n(Cc3ccccc3)c(=O)n1Cc1ccccc1F)n2C` the value was inactive: 73%; for `CN(c1ccc(F)cc1)S(=O)(=O)N1CCCC(C(=O)NCc2ccccc2Cl)C1` (stereo unspecified), inactive: 92%. For `CCN(CC)S(=O)(=O)c1ccc(OC)c(NC(=O)c2sc3ccccc3c2Cl)c1` the value was inactive: 92%; for `CCOc1ccc(N2CC(NC(=O)c3ccc(Cl)cc3)CC2=O)cc1` (stereo unspecified), inactive: 45%; for `Cc1cccc(NC(=O)c2oc3ccccc3c2NC(=O)c2cc(=O)c3ccccc3o2)c1`, inactive: 82%. Take `CCOC(=O)N1CCc2c(sc3c2c(=O)n(Cc2ccccc2)c(=O)n3CC(=O)Nc2ccc(F)cc2)C1`: the survival was inactive: 87%. Consider `CNC(=O)CN1C(=O)COc2ccc(S(=O)(=O)N3CCCCCC3)cc21`, for which the survival was inactive: 69%. For the compound `COc1ccc(CNC(=O)c2cnn3c2NC(c2ccc(C)cc2)CC3C(F)F)cc1OC` (stereo unspecified), the survival is inactive: 126%. For `COc1ccc(CN2C(=O)C(NC(=O)c3cccc(C)c3)(C(F)(F)F)N=C2c2ccccc2)cc1` (stereo unspecified) the value was inactive: 77%. For `CCOc1ccc(NC(=O)CSc2cn(CCNC(=O)c3ccccc3F)c3ccccc23)cc1` the value was inactive: 80%; for `Cn1c2ccccc2c2cnn(CC(=O)NCCCN3CCCCC3)c(=O)c21`, inactive: 79%; for `CCc1ccccc1NC(=O)CSc1nncn2c1cc1oc(C)cc12`, inactive: 79%. For `Fc1ccc(C(c2nnc(-c3ccccc3)o2)N2CCN(c3cccc(Cl)c3)CC2)cc1` (stereo unspecified) the value was inactive: 81%; for `CC(=O)N1c2ccccc2Sc2ccccc21`, inactive: 102%; for `CC(=O)c1cccc(NC(=O)CSc2nnc3ccc(-c4ccc(Br)cc4)nn23)c1`, inactive: 71%. Consider `O=C(NCCS(=O)(=O)N1CCN(c2ccc(F)cc2)CC1)C(c1ccccc1)c1ccccc1`, for which the survival was inactive: 126%.

Consider `CCOC(=O)C(CC)n1nnc2sc(-c3ccccc3)cc2c1=O` (stereo unspecified), for which the survival was inactive: 81%. For `CC(C)Oc1ccccc1-c1nc(SCC(=O)c2ccc(F)cc2)n[nH]1` the value was active: -5%; for `Cc1ccc2oc(=O)c3cnn(CC(=O)N4CCN(c5ccc(F)cc5)CC4)c3c2c1`, inactive: 83%; for `Cc1ccc(Nc2c(-c3c[nH]c4ccccc34)nc3ccccn23)cc1`, inactive: 76%.

For `Cc1ccc(-n2c(=O)c3sc4ccccc4c3n(CC(=O)NC3CCCC3)c2=O)cc1C`, the survival is inactive: 63%. For `Cc1ccc(NC(=O)Cn2c(=O)n(Cc3ccccc3)c(=O)c3sc4ccccc4c32)cc1` the value was inactive: 93%; for `COc1ccc(OC)c(CCNC(=O)c2cc3c(s2)-c2c(C)cccc2OC3)c1`, inactive: 101%; for `Cc1ccc(CNC(=O)CSc2nc3c(sc4ccccc43)c(=O)n2CCCOC(C)C)cc1`, inactive: 124%. For `CCN(CC)S(=O)(=O)c1ccc(NC(=O)CN(c2ccccc2)S(=O)(=O)N(C)C)cc1` the value was inactive: 76%.
